Measurements published in patent US11365205B2 (Aurigene Discovery Technologies Limited, priority 2018, dated 2022).

Biological target: PRMT5/MEP50 Complex (Homo sapiens (Human), UniProt O14744)
Assay: PRMT5 inhibition based on TR-FRET assay
Type: biochemical
Conditions: 32 nM PRMT5:MEP50, 50 nM Histone-H4 peptide, 1 μM SAM
Source text: PRMT5 Inhibition Based on TR-FRET Assay:
Protein arginine methyltransferase 5 (PRMT5) is a type II arginine methyltransferase that catalyze mono- and symmetric demethylation on arginine residues of histone or non-histone proteins in presence of S-adenosylmethionine (AdoMet or SAM) a cofactor responsible for donating the methyl group. PRMT5 is reported to be overexpressed in several human cancers. To identify compounds that inhibit the PRMT5 and decrease its activity, a TR-FRET based assay has been established. Time-resolved fluorescence resonance energy transfer (TR-FRET) HTS assays are homogeneous proximity assays where the interaction of two dye-labeled binding partners is detected by the energy transfer between a donor and an acceptor dye and the subsequent light emission by the acceptor dye. PRMT5 catalyzes Histone H4 peptide which is biotin tagged to the Lysine amino acid at carboxyl end, in presence of S-adenosyl-1-methionine (SAM) to methylate the peptide. The antibody specific to mono methylated H4 peptide (H4R3) with Ig conjugate binds to the methylated peptide, indirectly binding to the Europium lanthanide. […]
The compound dilutions were prepared as 7.5% DMSO stock solutions in assay buffer. […] The plates were then read on Victor-3 with Excitation at 340 nm and Emissions collected at 615 and 665 nm in TR-FRET protocol. […]

Sequence of UniProt O14744 (O14744 whole entry): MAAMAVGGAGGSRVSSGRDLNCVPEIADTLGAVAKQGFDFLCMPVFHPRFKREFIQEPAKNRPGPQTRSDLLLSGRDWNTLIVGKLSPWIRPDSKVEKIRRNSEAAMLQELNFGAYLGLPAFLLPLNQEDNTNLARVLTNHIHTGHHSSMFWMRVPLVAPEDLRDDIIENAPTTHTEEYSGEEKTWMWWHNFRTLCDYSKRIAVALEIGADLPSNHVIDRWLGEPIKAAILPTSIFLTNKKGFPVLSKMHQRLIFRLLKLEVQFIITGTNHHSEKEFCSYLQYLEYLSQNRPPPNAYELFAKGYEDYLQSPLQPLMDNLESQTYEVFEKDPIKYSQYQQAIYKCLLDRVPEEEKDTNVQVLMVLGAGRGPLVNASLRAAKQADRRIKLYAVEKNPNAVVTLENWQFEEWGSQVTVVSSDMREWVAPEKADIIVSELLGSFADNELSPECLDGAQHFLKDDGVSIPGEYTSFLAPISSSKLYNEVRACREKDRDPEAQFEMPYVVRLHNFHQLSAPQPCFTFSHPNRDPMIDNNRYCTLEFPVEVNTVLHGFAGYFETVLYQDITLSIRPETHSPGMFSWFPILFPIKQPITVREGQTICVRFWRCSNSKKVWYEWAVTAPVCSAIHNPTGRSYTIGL
Sequence of UniProt O14744 (Q9BQA1 whole entry partner): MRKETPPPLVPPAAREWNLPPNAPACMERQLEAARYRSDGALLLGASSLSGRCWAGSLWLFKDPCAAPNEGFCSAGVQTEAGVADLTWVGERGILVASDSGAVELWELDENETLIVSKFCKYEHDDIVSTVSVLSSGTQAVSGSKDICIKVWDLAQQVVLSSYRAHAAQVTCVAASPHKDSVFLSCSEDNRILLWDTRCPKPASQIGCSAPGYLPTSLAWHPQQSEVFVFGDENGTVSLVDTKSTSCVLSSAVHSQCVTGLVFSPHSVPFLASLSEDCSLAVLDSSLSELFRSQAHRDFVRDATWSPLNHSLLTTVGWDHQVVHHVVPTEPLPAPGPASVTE

SMILES | IC50 [µM]
NC(=O)c1ccc(CN2CCN(CC(O)CN3CCc4ccccc4C3)C2=O)cc1 (centres unmarked) [Example 47, 4-((3-(3-(3,4-dihydroisoquinolin-2(1H)-yl)-2-hydroxypropyl)-2-oxoimidazolidin-1-yl)methyl)benzamide] | 0.59
CNC(=O)c1ccc(CN2CCN(C[C@H](O)CN3CCc4ccccc4C3)C2=O)nc1 [Example 49] | 0.18
